# Measurements as given in PubChem BioAssay AID652104 (National Center for Advancing Translational Sciences (NCATS), 2013).
# Among all 410,000 compounds or so, about 7,200 (1.8%) were called active. Inconclusive means that the source gave no clear call. Such entries were picked first, then a sample of the others. Calls follow the shape of the dose curve; as a rule, active = well fitted activation curve with a large enough effect; inconclusive = small, poorly fitted or top-dose-only effect, or another doubt; inactive = no such curve, though single readings can be large or run the other way. No potency is given beside an inconclusive call; the fits are too rough.
# Experiment: qHTS of TDP-43 Inhibitors; also: nearly all actives have a fitted effect of over 50% in size; as to growth rescue (activation): % of control where 0% means no effect
# Details: TDP-43 expressing yeast growth rescue, BacTiter-Glo, 24 h; growth rescue (activation): at 46.1 µM (top of the series) unless noted
# Procedure, shortened: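 In this qHTS, compounds that restore growth of yeast expressing TDP-43 appear as activators. Cells (OD600=0.02, galactose medium, raffinose-pregrown) are incubated with compound 24 hr at 30 deg C and growth is quantified by BacTiter-Glo.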
# Potency is read from the fitted curve at half-maximal effect; tags tell the direction and shape of the fitted curve.
SMILES,Potency,growth rescue (activation)
NC(=O)c1nccc2ccccc12,"inconclusive [activator, partial curve, poor fit]",
CCOc1ccc(NC(=O)CN2CCN(CC(=O)Nc3ccccc3OCC)CC2)cc1,inactive,
Cc1cc(C(=O)Nc2c(C)nn(Cc3ccc(F)cc3)c2C)no1,"inconclusive [activator, partial curve, poor fit]",
NC(=O)C1CCN(C(=O)Cn2c(-c3cccs3)cc3ccccc32)CC1,inactive,
O=C(c1ccc(F)cc1F)N1CCN(S(=O)(=O)c2ccc3c(c2)OCCO3)CC1,active: 12.6 µM,
CCOc1ccccc1NC(=O)CCCc1ccc(OC)c(C)c1,"inconclusive [activator, partial curve]",
O=C(CSCc1cccc(Br)c1)N/N=C/c1ccc2c(c1)OCO2,"inconclusive [activator, partial curve]",
CCn1ccc2cc(S(=O)(=O)N3CCCN(C(=O)NCCOC)CC3)ccc21,inactive,
CC(C)N(CCC(=O)c1ccc2ccccc2c1)Cc1ccccc1,,inconclusive: -94% [activator]
COc1ccc(-n2cc(C(=O)c3ccccc3O)cn2)cc1,active: 12.6 µM,
COc1ccc(N2C(=O)c3ccccc3NC23CCC(C)CC3)cc1 (stereo not drawn),inactive,
Cc1nc(CSc2nsc(/C=C/N(C)C)c2C#N)cs1,"inconclusive [activator, full curve, poor fit]",
CC(C)Sc1nnc([C@@H]2CCCN2C(=O)OC(C)(C)C)o1,"inconclusive [activator, partial curve]",
Cc1c(-c2ccccc2)c(=O)oc2cc(O)ccc12,"inconclusive [activator, partial curve]",
CC(=O)c1ccc(N(CC(=O)NC2CCCC2)C(=O)CNC(=O)c2cccs2)cc1,inactive,
CC(=O)c1ccccc1NCC(=O)Nc1ccc(C)cc1,"inconclusive [activator, partial curve]",
CCOC(=O)c1ccccc1NC1CC(=O)N(c2ccccc2C)C1=O (stereo not drawn),"inconclusive [activator, partial curve]",
O=C(CSc1nncs1)NCc1ccc(F)cc1,"inconclusive [activator, single point]",
CC1=C(c2ccc(C(C)C)cc2)S(=O)(=O)NC1=NCc1ccccc1Br,inactive,
COc1cccc(-c2cc(C(=O)N/N=C/c3ccco3)c3ccccc3n2)c1,"inconclusive [activator, partial curve, poor fit]",
COc1cc(OC)cc(C(=O)Nc2cccc3ccccc23)c1,"inconclusive [activator, partial curve]",
Cc1cc(=O)oc2cc(OC(C)C(=O)N3CCCc4ccccc43)ccc12 (stereo not drawn),"inconclusive [activator, single point]",

SMILES,Potency,growth rescue (activation)
CCCCCC(=O)Nc1ncc2c(n1)CC(c1cccs1)CC2=O (stereo not drawn),"inconclusive [activator, partial curve]",
CCCCCCC=C1CCC(CN2CCCC2)C1=O (stereo not drawn),"inconclusive [activator, single point]",
COc1cccc(/C=C/C(=O)OCCN2C(=O)c3ccccc3C2=O)c1,"inconclusive [activator, partial curve]",
COCCn1c(-c2ccc(OC)cc2)c(-c2ccc(OC)cc2)oc1=O,"inconclusive [activator, partial curve]",
Oc1c(N=Nc2ccccn2)ccc2ccccc12,,inconclusive: -77.3% [activator]
CCCCN1CC(c2nc3ccccc3n2CCCCOc2ccc(C)c(C)c2)CC1=O (stereo not drawn),"inconclusive [activator, partial curve, poor fit]",
O=C(NCc1ccc2c(c1)OCO2)c1cc(COc2c(F)cccc2F)on1,"inconclusive [activator, partial curve]",
Cc1ccc(NC(=O)CSC2=Nc3ccccc3C3CC=NN23)c(C)c1 (stereo not drawn),"inconclusive [activator, partial curve]",
CCCCSCCCNC(=O)Nc1ccc(CC)cc1,"inconclusive [activator, partial curve]",
CCOc1ccccc1NC(=O)c1nc2nc(C)cc(C(F)F)n2n1,"inconclusive [activator, full curve]",
CCOC(=O)/C(C#N)=C/c1cn(CCOc2ccccc2)c2ccccc12,"inconclusive [activator, partial curve]",
C=CCn1c(COc2ccc(Cl)cc2)nnc1SCc1ccc(C#N)cc1,"inconclusive [activator, single point]",
O=C(NCC1CCCN1S(=O)(=O)c1ccccc1)c1cccc(Cl)c1 (stereo not drawn),"inconclusive [activator, partial curve]",
CC1(C)O[C@H]2[C@@H](O1)[C@@H](C(=O)Nc1ccc(F)c(F)c1)O[C@@H]1OC(C)(C)O[C@@H]12,"inconclusive [activator, full curve]",
CCOC(=O)c1c(N)sc(C(C)=O)c1C,"inconclusive [activator, single point]",
CCOc1cc(C(c2c(C)[nH][nH]c2=O)c2c(C)[nH][nH]c2=O)ccc1OCc1ccc([N+](=O)[O-])cc1,"inconclusive [activator, partial curve, poor fit]",
Cc1cc(S(=O)(=O)c2ccc(Cl)cc2)nc(S(=O)(=O)c2ccc(Cl)cc2)c1C#N,active: 3.55 µM,
O=C(COc1ccccc1)NC1CCCc2ccccc21 (stereo not drawn),"inconclusive [activator, partial curve]",
OCCC#Cc1c(-c2ccsc2)sc2ccccc12,"inconclusive [activator, single point]",
CCOC(=O)c1c(C)nsc1NCc1ccccc1,"inconclusive [activator, single point]",
CN(C)/N=C/c1ccc([N+](=O)[O-])cc1[N+](=O)[O-],"inconclusive [activator, partial curve]",
